The results in this text go back to the supplement of paper PMC11417369.

Some of the results follow.

For this assay, the system named is PfAP2-HC AP2 domain (GST-tagged). In words: gcPBM binding intensity (ln(normalized median fluorescence intensity)); higher = stronger DNA binding. A digest of the protocol:
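Using an Agilent 4 × 180k array, primer-extended double-stranded 36-bp intergenic genomic probes and negative controls were exposed for 1 h to GST-fused P. falciparum DNA-binding domains expressed in E. coli. Binding was carried out in 1× PBS with 1% milk, 0.2 mg/ml BSA, 0.5% salmon testes DNA and 0.03% Triton X-100, and protein was detected with Alexa488 anti-GST antibody and a 488 nm scan. Binding intensity is the highest Masliner-normalised natural-log median intensity across replicate spots of either probe orientation.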
Regarding “TTTACATATTTATATACACACTTTTGCGTGCGTGGT [CACACA_site6647]”, the “gcPBM binding intensity (ln)” value amounted to 9.77.

For the sequence “ATACATATATATATATGTACATATGTATTTTTTATT [XGTACX_site105]”, the “gcPBM binding intensity (ln)” value was found to be 9.84. The same measure for “ACTATACAGTTATACACACACATATATCTATAATAT [CACACA_site6283]”: 10.1. Under “TAGTATAATATGAACACACACACACCGACAAAAAAA [CACACA_site5151]” stands 10.5; under “AATTGAAAAAGAAATTGTACATTTTATTTTTATTAT [XGTACX_site1973]”, 9.54. Under “ATATAATTTATATATTCACACAAGGAATACTTTTAT [CACACA_site5506]” stands 9.68; under “TTTTATTTGACAAGCACACACTTAAATATATATATA [CACACA_site5792]”, 9.79; under “AAACAAAAAATAAAATGTACATTTATTACGATAAGT [XGTACX_site2392]”, 9.92. Consider “ATGGAATAATCACGTACACACAAGAAAAAAAAAAAT [CACACA_site527]”, for which the “gcPBM binding intensity (ln)” value stood at 10. On to “GGATAATATATTAGAACACACATATATATGTAAAAA [CACACA_site185]”, for which the “gcPBM binding intensity (ln)” value is 9.9. The same measure for “ATTACAAATACAAACACACAAATGTTTTTCATTCAA [CACACA_site7639]”: 9.68; for “AGTAAATTTGATGGTCGTACAAAAAAAAAGTAGGAC [XGTACX_site2600]”: 9.78; for “ATATACATAATTTGGAGTACAATATCATATAAATAT [XGTACX_site6334]”: 9.61. The same measure for “TTTTTAATCAGAAATATTTATTAAAGAATTTTATAG [GTGCAC_negctrl_site725]”: 9.21; for “ACGAAGTATATGAATACACACATATTTTTAATGAAA [CACACA_site4070]”: 9.92; for “CATTTAAAATTTGTTTGTACATATATATATATATAT [XGTACX_site6729]”: 9.74. Under “TTTTACAATAACAATACACACTATAATATGTAAATA [CACACA_site6772]” stands 9.71; under “ATATATATATATATATGTACTTATGTCATCATTAAA [XGTACX_site5316]”, 9.62; under TATATGTATGTTTGTGTGCACACATAAATATTATAT, 10.2.

Consider “GTATAAAATATTTTATGTACATAATATATATATATA [XGTACX_site2489]”, for which the “gcPBM binding intensity (ln)” value turned out to be 9.56. Under “AAATAAAGGAAATGTATATCAACATTAAAATAAGGC [CACACA_negctrl_site441]” stands 9.99. The same measure for “ATTTCTATATATTGTGCATGCCATTACACCAAATAT [TGCATGCA_site813]”: 9.82; for “AGAATTTAGAAACAATGTTGTATATGTAATACCTTT [XGTACX_negctrl_site149]”: 9.61; for “GATATTATGTGTTTGGTATTTCGATCTTGTCAGGAC [CACACA_negctrl_site426]”: 9.65. Under “TATATATATAAAAAAAGTACGTATTTAATAAAAATA [XGTACX_site4992]” stands 9.88.
